Data taken from PubChem BioAssay AID1346428 (National Center for Advancing Translational Sciences (NCATS), 2018).
“And” between values parts separate entries of the source, which are not always exact repeats. Identical values can stand only once. Screen size: about 48,000 compounds; about 1,200 (2.5%) were called active. Inconclusive results (about 2%) are left out.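 How the source made its calls: active means activation of at least 60% and not above a set upper limit (about 1 call in 100 departs from these limits); inconclusive means activation of 40% to 60%, or above that upper limit; inactive means activation under 40%.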 This is one part of the list.

Each compound was assayed against Probable G-protein coupled receptor 32 (Homo sapiens) (UniProt O75388) (assay: qHTS for Agonists of Human Resolvin D1 Receptor DRV1). Conditions: CHO-K1 GPR32 beta-arrestin PathHunter luminescence, 90 min; at 76.9 µM; stronger effect = higher value; zero percent set by DMSO-only wells.
Sequence of UniProt O75388 (O75388 whole entry, looked up, the tested form may be a part): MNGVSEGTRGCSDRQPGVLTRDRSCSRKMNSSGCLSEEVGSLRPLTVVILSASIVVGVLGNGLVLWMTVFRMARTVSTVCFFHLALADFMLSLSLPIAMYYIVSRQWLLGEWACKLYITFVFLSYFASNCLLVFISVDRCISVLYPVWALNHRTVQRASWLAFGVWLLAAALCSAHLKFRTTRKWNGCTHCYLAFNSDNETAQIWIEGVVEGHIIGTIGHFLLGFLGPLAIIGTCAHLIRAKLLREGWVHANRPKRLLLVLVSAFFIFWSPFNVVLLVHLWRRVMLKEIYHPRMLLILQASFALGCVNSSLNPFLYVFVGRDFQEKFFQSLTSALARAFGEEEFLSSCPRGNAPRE
How it was run: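 Agonism was scored as beta-arrestin recruitment to ProLink-fused GPR32 in stably transfected CHO-K1 cells, giving a chemiluminescent beta-Gal signal; compounds were incubated 90 min at 37 °C.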
Further: 0% is about no effect.

activation, active:
COc1ccccc1OCCCSc1nc(-c2ccc(C(C)(C)C)cc2)nc2cc(=O)[nH]n12 75.1%
Cc1ccc(Cl)cc1NS(=O)(=O)c1ccc2c(c1)NC(=O)CCS2 93.9%

activation, inactive:
O=C(NCc1cccc(F)c1)C1CCCN(C(=O)N2CCOc3ccccc32)C1 (centres undefined) 4.19%
CCOC(=O)CSC1=Nc2ccccc2C2=NC(CCC(=O)NCc3ccc(F)cc3)C(=O)N12 (centres undefined) 11.3%
CC1CN(C(=O)N2CCC(C(=O)NCc3cccs3)CC2)c2cc(Cl)ccc2O1 (centres undefined) 3.23%
Cc1ccc(C)c(NC(=O)C2CCCN(c3nc4ccccc4s3)C2)c1 (centres undefined) 0.53%
Cc1c2cnn(CC(=O)N3CCCCC3)c(=O)c2c(C)n1Cc1ccc(F)cc1 -4.28%
COc1cccc(CNC(=O)C(CC(C)C)NS(=O)(=O)c2ccc3c(c2)oc(=O)n3C)c1 (centres undefined) -1.59%
CCC1CCCCN1CCCNC(=O)c1[nH]c2ccccc2c1Sc1ccc(Cl)cc1 (centres undefined) -5.37%
CCOc1ccc(C(c2c(O)cc(C)n(CCOC)c2=O)N2CCN(c3ccccc3)CC2)cc1 (centres undefined) -11.1%
Cc1ccc2c(c1)C(=O)OC(C(=O)Nc1ncc(Cc3ccc(C(C)C)cc3)s1)C2 (centres undefined) 9.82%
COc1ccc(-c2noc(N3CCC(C(=O)Nc4ccc(F)cc4Cl)CC3)n2)cc1 -9.68%
CCN(C(=O)CCS(=O)(=O)c1cc2[nH]c(=O)c(=O)[nH]c2cc1C)c1ccccc1 -1.03%
Cc1ccc(Cl)cc1NS(=O)(=O)c1ccc2oc(=O)c3ncn(C)c3c2c1 -32.7%
Cc1ccc(-c2cn3nc(N4CCCC(C(=O)Nc5ccc(F)cc5)C4)sc3n2)cc1 (centres undefined) -9.23%
Cc1ccc2sc(N3CCN(C(=O)CCS(=O)(=O)c4ccc(Cl)cc4)CC3)nc2c1C 8.34%
O=C(NCCc1ccc(F)cc1)C(=O)NCC(c1cccs1)S(=O)(=O)c1ccc(F)cc1 (centres undefined) 36.5%
Cc1ccc(N(CC(=O)N2CCN(c3ccc(Cl)cc3)CC2)S(=O)(=O)c2c(C)nn(C)c2C)cc1 -12.7%
CCC(Sc1nc2ncccc2[nH]1)C(=O)Nc1cccc(OC)c1 (centres undefined) -3.69%
CCCN(CCC)C(=O)Cn1c(=O)n(-c2cccc(OC)c2)c(=O)c2c(C)c(C(=O)N(C)C)sc21 -10.2%
COCCCn1c(=O)c2sccc2n2c(CCCC(=O)Nc3cc(C)cc(C)c3)nnc12 -14.3%
Cc1ccc(NC(=O)C(Cc2ccccc2)n2cccc2)cc1 (centres undefined) -8.49%
CN1CCc2c(sc3c2C(=O)NC(c2ccc(OC(=O)c4ccccc4)cc2)N3)C1 (centres undefined) -14.3%
COc1ccc(OC)c(NCc2cccn2-c2nnc(N3CCCCC3)s2)c1 -12.2%
Cc1ccc(C)c(S(=O)(=O)c2cn(C)c3cc(N4CCCCC4C)c(F)cc3c2=O)c1 (centres undefined) -24.9%
CC(C)(Oc1ccc(CCNC(=O)c2ccc(Cl)cc2)cc1)C(=O)O 8.88% and 1.57%
OCCN1CCN(CCCN2c3ccccc3Sc3ccc(C(F)(F)F)cc32)CC1 46.6% and -14.4%
COc1ccc(CNC(=O)Cn2ncc3c4ccccc4n(Cc4cccc(Cl)c4)c3c2=O)cc1 -12.7%
c1ccc(CC2=NCCN2)cc1 -3.87%
COc1ccc(C)cc1NC(=O)c1ccc2c(=O)n3c(nc2c1)CCCCC3 -16.3%
Cn1c(=O)c2c(-c3ccc(Cl)cc3)n(Cc3ccc(Cl)cc3)cc2n(C)c1=O -7.14%
COc1ccc(C(=O)NCCn2cc(SCC(=O)Nc3ccc(C)cc3)c3ccccc32)cc1 3.09%
Cc1ccc(CNC(=O)NCc2noc3ccc(C)cc23)cc1 -9.99%
NCCCCC(=O)O 6.99%
Cc1cccc(-c2nc3c4ccccc4nc(N4CCN(c5ccccc5F)CC4)n3n2)c1 0.0961%
COCCOC(=O)C1=C(C)NC(=O)NC1c1cn(-c2ccccc2)nc1-c1ccccc1 (centres undefined) -8.26%
CC1Cc2cc(S(=O)(=O)CCC(=O)NCc3ccc(Cl)cc3)ccc2N1C(=O)C1CC1 (centres undefined) -0.358%
O=C(O)CCc1nc(-c2ccccc2)c(-c2ccccc2)o1 3.05% and -8.42%
COc1ccc(OC)c(CCNC(=O)CCc2cn(Cc3cc(C)ccc3C)c3ccccc23)c1 -28.3%
O=C(Cn1c(=O)c2cccn2c2ccc(F)cc21)N1CCN(c2ccccc2F)CC1 -18.8%
COc1cccc(C2NC(=O)c3n[nH]c(-c4cccs4)c32)c1 (centres undefined) 18.1%
Cc1ccc(C)c(NC(=O)Cn2nnc(C(=O)NCc3ccccc3Cl)c2N)c1 24.3%
COc1ccc(C(=O)N(Cc2cc(OC)c(OC)c(OC)c2)c2ccccn2)cc1 -6.46%
O=C(Cn1c(=O)nc(-c2ccccc2)c2ccccc21)NCCc1ccc(Cl)cc1 -7.28%
CN1CCN(C(CNC(=O)c2ccccc2F)c2ccc3c(c2)OCO3)CC1 (centres undefined) 4.53%
COc1ccc(Br)cc1CNC(=O)c1cnc2sc(N3CCCC3)nn2c1=O -1.28%
COc1cc(NC(=O)NCC2CCN(Cc3ccccc3Cl)CC2)cc(OC)c1OC 3.27%
COc1ccc(-c2cn3nc(N4CCCC(C(=O)Nc5cc(C)ccc5C)C4)sc3n2)cc1 (centres undefined) -16.3%
COc1ccc(NC(=O)c2sc3nc(-c4cc5ccc(OC)cc5oc4=O)[nH]c(=O)c3c2C)cc1 1.24%
CCCCN(CC)CCNC(=O)CCn1cnc2onc(-c3ccc(F)cc3)c2c1=O 25.9%
Cc1cccc(-n2cc(-c3ccccc3)c3c(N4CCC(C)CC4)ncnc32)c1 -32.1%
CCc1ccccc1NC(=O)C1CCN(S(=O)(=O)c2ccccc2)CC1 25.7%
O=C(NC1CCCC1)c1ccc(CSc2nc3ccncc3n2Cc2cccc(F)c2)cc1 -17.2%
O=C1c2ccccc2C(=O)C1c1ccccc1 -8.08%
CCOc1cc(C(=O)NCc2ccc3c(c2)CCN3C(=O)c2ccc(F)cc2)cc(OCC)c1OCC -19.1%
O=C(Cn1ccnc1[N+](=O)[O-])NCc1ccccc1 3.09%
CCCCOc1ccc(C(=O)Nc2ccc3oc(-c4cccnc4)nc3c2)cc1 -3.62%
COc1ccc(CNC(=O)C(C)Sc2nc(-c3ccccc3)cc(C(F)(F)F)n2)cc1 (centres undefined) -5.73%
O=C(COc1ccccc1Cl)OCc1cc(=O)n2nc(C3CCCCC3)sc2n1 -9.5%
CC1Cc2cc(S(=O)(=O)NCCc3ccc(Cl)cc3)ccc2N1C(=O)C1CCC1 (centres undefined) -4.5%
COc1ccccc1Cn1cc(C(=O)c2ccc(Cl)cc2)c(=O)c2ccccc21 34.9%
Cc1c2cnn(CC(=O)NCC(C)c3ccccc3)c(=O)c2c(C)n1Cc1cccc(Cl)c1 (centres undefined) -3.86%
Cc1cccc(S(=O)(=O)c2cn(Cc3ccccc3)c3cc(N4CCOCC4)c(F)cc3c2=O)c1 -10.5%
CCc1ccc(C(=O)c2cnc3ccc(F)cc3c2S(=O)(=O)c2ccccc2)cc1 -24.1%
CC(C)OCCCNC(=O)c1cn(C)c2ccc(S(=O)(=O)N3CCCCCC3)cc2c1=O 2.82%
Cc1cccc(C(=O)Nc2ccc(-c3nc4ncccc4o3)cc2C)c1 -7.09%
CCn1ccc2cc(S(=O)(=O)N3CCC(C(=O)NCCc4ccccc4Cl)CC3)ccc21 -8.09%
Cc1oc2ccc(O)c(CN3CCCC3)c2c1C(=O)Nc1ccccc1 -14.4%
Cc1cccc(N2CCN(C(=O)C3CCCN(S(=O)(=O)c4ccc5c(c4)oc(=O)n5C)C3)CC2)c1C (centres undefined) 6.14%
CCc1cccc2c(-c3ccccc3)nc(SCC(=O)Nc3ccccc3OC)nc12 1.25%
COc1ccccc1NC(=O)C(C)Sc1nnc2ccc3ccccc3n12 (centres undefined) 3.64%
Cc1ccc(CNC(=O)CN2C(=O)CCn3nc(-c4ccccc4)cc32)cc1 -14.2%
Clc1ccc2c(c1)C(N1CCNCC1)=Nc1ccccc1O2 -20.2% and -6.69%
Cc1ccc(-n2ncc(C(=O)NCc3cccs3)c2C2CCN(C(=O)OC(C)(C)C)CC2)cc1 -28.3%
CC(C)N=C(N)/N=C(\N)Nc1ccc(Cl)cc1 21.5%
CCCCOc1ccc(C(=O)NCCc2csc(-c3cccc(F)c3)n2)cc1 21.7%
CCCn1c(=O)c2sccc2n2c(CCCC(=O)NC3CCC(C)CC3)nnc12 (centres undefined) -4.35%
CCCCC/C(C=O)=C\c1ccccc1 0.0029%
CN(C)c1ccc(CNC(=O)c2ccc3nc(Cc4ccccc4)oc3c2)cc1 -21.2%
Cc1cc(C)c(NC(=O)C(=O)NCCc2csc(-c3ccc(F)cc3)n2)c(C)c1 -11.7%
CSc1ccc(CCNC(=O)c2csc3c2CCCCC3)cc1 -20.2%
O=C(O)CCn1ccc2cc(S(=O)(=O)N3CCCCCC3)ccc21 -17.4%
Cc1ccc(C(=O)c2c(N)c(C(=O)Nc3cccc(C(F)(F)F)c3)c3ccccn23)cc1 -2.45%
Cc1ccc(-n2c(=O)c3oc4ccccc4c3n(Cc3cccc(F)c3)c2=O)cc1C -20.8%
